Consider 88 compounds from PubChem BioAssay AID463173 (ICCB-Longwood Screening Facility, Harvard Medical School, 2010).

Out of some 52,000 compounds screened, about 1,700 (3.3%) were called active. No stated cut-off is given here; in the data, active means survival mostly below about 52% (no sharp cut-off); inactive means mostly above about 56%. The list shows a part of the results.

The subject of this experiment is Wild type. Nature of the experiment: S. aureus survival, RN4220 and DeltatarO strains – OD600, teichoic acid synthesis inhibitors, primary screen (AID 463173). To be noted: S. aureus RN4220 wild type/DeltatarO growth, OD600, 18 h, hits give low values, screened at 18.75 µg/mL (by protocol).
Turning to `CCOC(=O)c1cnc2c(ccc3ccccc32)c1Nc1ccc(C(C)=O)cc1`, the survival was active: 0%.
Then `COc1cccc(CSc2nc3ccncc3n2CC(=O)Nc2ccc(OC)c(OC)c2OC)c1`, with inactive: 122%; and `COc1ccccc1CNC(=O)Cc1csc2nc(-c3ccc(F)cc3)cn12`, with inactive: 85%.
Then `Cc1ccc(NC(=O)c2ccco2)cc1NC(=O)CSc1ncnc2sc3c(c12)CCC3`, with inactive: 101%; and `O=S(=O)(c1ccc(Cl)cc1)c1nc(-c2cccs2)oc1N1CCCCC1`, with inactive: 45%; and `CCc1cc2c(cc3c(=O)n(CC(=O)NC(C)c4ccccc4)ncn32)s1` (stereo not drawn), with inactive: 83%.
The result for `CCc1ccccc1NC(=O)C1CCN(S(=O)(=O)c2cn(C)cn2)CC1` reads inactive: 74%; that for `CCOC(=O)c1sc2ccccc2c1S(=O)(=O)NCc1ccccc1OC`, inactive: 69%; that for `COc1cccc(NC(=O)CCN2C(=O)c3ccccc3Sc3ncccc32)c1`, inactive: 116%.
As for `Cc1cc(C)nc(-n2nc(C)c3c2N(Cc2ccccc2F)C(=O)CC3c2ccc(Cl)cc2)n1` (stereo not drawn), the survival is inactive: 115%.
Then `CCC(=O)N1CCc2cc(Br)cc(S(=O)(=O)NCCc3cccc(C)c3)c21`, with inactive: 99%.
As to `Cc1cccc(C(=O)Nc2cc3c(cc2C)n(C)c(=O)n3C)c1`, the survival is inactive: 74%.
Then `Cc1nnc(N2CCN(C(=O)NCCC(C)C)CC2)c2nn(-c3ccc(Cl)cc3)c(C)c12`, with inactive: 87%; and `CCc1ccc(S(=O)(=O)Nc2cccc(-c3ccc(N4CCCCC4)nn3)c2)s1`, with inactive: 71%.
With `O=C1C(c2ccc(F)cc2)N(CCc2ccc(Cl)cc2)C(=O)CN1C1CCCCC1` (stereo not drawn), the survival was inactive: 69%.
Consider `Cc1cc(C)c2nc(C)cc(Nc3cccc(C(=O)O)c3)c2c1`, for which the survival was inactive: 69%.
The result for `CCOc1cc(C(=O)Nc2cc3c(cc2N2CCCC2)n(C)c(=O)c(=O)n3C)cc(OCC)c1OCC` reads inactive: 79%; that for `O=C(Nc1sc2c(c1C(=O)NCc1ccco1)CCCC2)c1cc(=O)c2cc(Cl)ccc2o1`, inactive: 79%.
As to `CCC(=O)NCC1(c2ccccc2)CCCC1`, the survival was inactive: 102%.
Then `O=C(c1ccccc1)N1CCN(S(=O)(=O)c2ccccc2)CC1`, with inactive: 101%; and `COc1ccc(NC(=O)Nc2cc(-c3cn4cccnc4n3)ccc2C)cc1`, with inactive: 91%; and `O=C(NC1CCN(Cc2ccccc2)CC1)c1ccc(Cn2c(=O)c3ccccc3n(Cc3ccc(Cl)cc3)c2=O)cc1`, with inactive: 80%.
On to `CC(=O)N1CCc2c(sc3c2c(=O)n(-c2ccccc2)c(=O)n3CC(=O)c2ccccc2)C1`, for which the survival is inactive: 89%.
With `CC(=O)N1CCC(N(Cc2ccc(C)o2)C(=O)Nc2cccc(C(F)(F)F)c2)CC1`, the survival is inactive: 63%.
The result for `Cc1ccc2c(c1)-c1nc(-c3ccc4c(c3)NC(=O)CO4)cc(-c3ccccc3)c1CO2` reads inactive: 80%.
Then `O=C(CCCCn1c(=O)c2ccccc2n(Cc2cccc(F)c2)c1=O)NCCc1ccccc1`, with inactive: 108%; and `Cc1ccc(C)c(NC(=O)CN2C(=O)CCc3cc(S(=O)(=O)N4CCCCC4)ccc32)c1`, with inactive: 22%.
The result for `CC(=O)Nc1ccc(NC(=O)c2ccc3c(c2)N(Cc2cccc(Cl)c2)C(=O)c2ccccc2S3=O)cc1` (stereo not drawn) reads inactive: 66%; that for `Cc1ccc(Cn2c(=O)n(Cc3ccccc3)c(=O)c3oc4ccccc4c32)cc1`, inactive: 86%; that for `CC(=O)N1CCc2cc(S(=O)(=O)NC(Cc3ccccc3)C(=O)NCc3ccccc3)ccc21` (stereo not drawn), inactive: 85%.
`O=C(CC1N=C2c3ccccc3N=C(SCc3ccc(F)cc3)N2C1=O)NCCc1ccccc1` (stereo not drawn): the survival was inactive: 58%.
Then `Cc1cccc(Cn2c(-c3ccccc3)nc3ccccc32)c1`, with active: 26%.
The result for `O=C(CSc1nccn1-c1ccc(F)cc1)Nc1nc2ccccc2s1` reads inactive: 97%; that for `COc1ccc2[nH]c3c(c2c1)CCN(C(=O)CCC1CCCC1)C3c1ccc(F)cc1` (stereo not drawn), inactive: 64%; that for `CC(C)(C)OC(=O)N1CCC(c2c(C(=O)N3CCN(c4ccccn4)CC3)cnn2-c2ccc(F)cc2F)CC1`, inactive: 71%.
For the compound `Cc1ccc(-c2cnc(C3CC3)o2)cc1S(=O)(=O)Nc1cccc(C)c1C`, the survival was inactive: 84%.
The result for `CC(C)(C)c1ccc(C(=O)NCC(=O)OCc2cc(=O)n3nc(C4CC4)sc3n2)cc1` reads inactive: 94%.
Then `O=C(CSc1ncnc2c1cnn2-c1ccccc1)c1ccccc1`, with inactive: 108%; and `CCN1CCN(c2csc3ccc(Br)cc3c2=O)CC1`, with inactive: 83%.
Regarding `COc1ccc(NC(=O)C2CCCN(S(=O)(=O)c3c(C)[nH]c(=O)[nH]c3=O)C2)cc1OC` (stereo not drawn), the survival is inactive: 130%.
The result for `CCCCCn1cnc2c1c(=O)[nH]c(=O)n2C` reads inactive: 115%; that for `Cc1ccc(NC(=O)C2CCCN(c3ncnc4c3nc3n4CCCCC3)C2)c(Br)c1` (stereo not drawn), inactive: 82%.
Then `CCn1c(=O)c2cc(C(=O)NCc3cc(OC)ccc3OC)sc2c2ccccc21`, with inactive: 86%; and `COC(=O)c1c(NC(=O)c2ccc(OC)cc2OC)sc2c1CCCCC2`, with inactive: 56%; and `COc1ccc(CC(C)NS(=O)(=O)c2ccc3c(c2)CCN3S(C)(=O)=O)cc1OC` (stereo not drawn), with inactive: 134%.
For the compound `COc1ccc(Cl)cc1NCc1nnc2n1CCCCC2`, the survival was active: 0%.
Then `COc1ccc(NC(=O)c2oc3ccccc3c2NC(=O)c2cc(=O)c3cc(Cl)ccc3o2)cc1`, with inactive: 84%; and `CN(C)CC(C)(C)C1OCC2(CO1)COC(C(C)(C)CN(C)C)OC2` (stereo not drawn), with inactive: 110%; and `CCOc1ccc2nc(NC(=O)c3nc(SCc4ccccc4F)ncc3Cl)sc2c1`, with inactive: 95%.
The result for `Cc1cc(C)cc(-n2c(SCC(=O)Nc3ccccc3)nc3c(oc4ccccc43)c2=O)c1` reads inactive: 128%.
Then `O=Nc1c(O)n2c3c(cccc13)CCC2`, with inactive: 124%.
`COc1ccc2c(CNCc3cccs3)c(C(=O)O)n(Cc3ccc(F)cc3)c2c1`: the survival is inactive: 83%.
For the compound `Cc1ccc(-n2nc3c(=O)n(C(C)C(=O)NCc4ccc(OC(C)C)cc4)nc(C)c3c2C)cc1` (stereo not drawn), the survival is inactive: 93%.
Then `O=C(NCc1ccc(Cl)cc1)C1CCN(S(=O)(=O)c2cccc3nonc23)CC1`, with inactive: 111%; and `CCC(Cc1ccccc1)NC(=O)Cn1nc(C)n2c(cc3occc32)c1=O` (stereo not drawn), with inactive: 79%; and `CC(C)Cn1cc(NC(=O)N2CCN(c3ccc(F)cc3)CC2)c2ccccc2c1=O`, with inactive: 73%.
The result for `CC(=O)c1ccc(NC(=O)CSC2=Nc3ccccc3N=C(c3ccc(F)cc3)C2)cc1` reads inactive: 72%; that for `CCCCn1c(=O)n(CC2CCC(C(=O)NCCCOC)CC2)c(=O)c2sccc21` (stereo not drawn), inactive: 92%.
The result for `COc1cc(OC)cc(-c2nc3nc(C)c(CCC(=O)Nc4cc(C)cc(C)c4)c(C)n3n2)c1` reads inactive: 93%; that for `Cc1cc(=O)[nH]c2nnc(SCc3ccc(Cl)cc3Cl)n12`, inactive: 124%.
As for `O=C(N/N=C/c1ccc[nH]1)c1ccccc1O`, the survival was inactive: 107%.
Then `CC(=O)c1cccc(NC(=O)c2sc(-n3nc(C)c(Cc4ccccc4)c3C)nc2C)c1`, with inactive: 72%; and `CCCS(=O)(=O)N1CC(=O)N(c2cccc(Cl)c2)C(C)(C(=O)NC2CCCCC2)C1` (stereo not drawn), with inactive: 73%.
Then `CCCCN(C)CC(O)Cn1cc(/C=C/C(=O)c2ccc(Br)cc2)c2ccccc21` (stereo not drawn), with active: 15%; and `COCCNC(=O)c1ccc2c(c1)N(Cc1cc(C)ccc1C)C(=O)c1ccccc1S2=O` (stereo not drawn), with inactive: 93%; and `Cc1ccc2nc(COc3cccc(NC(=O)Nc4ccc(C)c(Cl)c4)c3)cc(=O)n2c1`, with inactive: 19%.
Turning to `COc1cccc(-c2cc(C(=O)NCCc3ccc(OC)c(OC)c3)no2)c1`, the survival is inactive: 156%.
The result for `O=C(Cn1c(SCc2ccc(F)cc2)nc2cccnc21)Nc1ccccc1F` reads inactive: 75%.
As for `Cc1ccc2c(CNC3CCCCC3)c(C(=O)O)n(Cc3ccc(F)cc3)c2c1`, the survival was inactive: 91%.
Then `COc1cccc2cc(-c3nc(-c4ccccc4F)no3)c(=O)oc12`, with inactive: 106%; and `Cc1c(C=Nc2ccc(Cl)cc2)c(O)n(C)c(=O)c1C#N`, with inactive: 110%; and `N#CC(C#N)=C(N)/C(C#N)=C/c1cccs1`, with inactive: 124%.
The result for `O=C(Nc1ccc(F)c(Cl)c1)c1ccc2c(Cl)c3c(nc2c1)CCCC3` reads inactive: 130%; that for `CCOc1ccccc1CNC(=O)c1cc2c(=O)n(Cc3cccnc3)ccc2nc1C`, inactive: 88%; that for `CCc1cccc(NC(=O)Cn2c(C(=O)OC)cc3sc(Cl)cc32)c1`, inactive: 80%.
The result for `O=C(Cn1nnc(-c2cccs2)n1)N1c2ccccc2CCc2ccccc21` reads inactive: 103%; that for `Cc1ccc(-n2c(SCc3ccccc3F)nc3[nH]ncc3c2=O)cc1Cl`, inactive: 77%.
Take `COc1ccc(NC(=O)CN2CCC(c3nc4ccc(Cl)cc4[nH]3)CC2)c(OC)c1`: the survival was inactive: 116%.
The result for `CCN(CC)CCNC(=O)C1CCN(C(=O)c2cnn(-c3ccccc3)c2-n2cccc2)CC1` reads inactive: 88%.
The result for `O=C(CN1C2=NCCN2c2ccccc21)c1ccc(O)cc1` reads inactive: 87%.
The result for `O=C(NCc1ccccc1)C1CCN(S(=O)(=O)Cc2ccccc2)CC1` reads inactive: 109%.
As to `CCOC(=O)N1CCc2c(sc3c2C(=O)NC(c2ccc(N(C)C)cc2)N3)C1` (stereo not drawn), the survival is inactive: 70%.
Then `Cc1ccc2nc(NC(=O)CSc3[nH]c(=O)ncc3C)sc2c1`, with inactive: 124%; and `CC1CCN(C(=O)CN(CCc2ccccc2)S(C)(=O)=O)CC1`, with inactive: 114%.
With `Cc1ccc(NC(=O)CSc2nc(=O)cc(N)n2-c2ccccc2)cc1`, the survival was inactive: 90%.
The result for `CC(=O)NCCNC(=O)CCCn1c(=O)[nH]c2ccsc2c1=O` reads inactive: 57%; that for `CCCCOc1ccc(C2c3c(oc4ccc(C)cc4c3=O)C(=O)N2CCCN(C)C)cc1OCC` (stereo not drawn), inactive: 73%; that for `Cc1ccc(-n2c(/C=C/c3c(C)n(C)c4ccccc34)nc3ccccc3c2=O)cc1`, inactive: 76%.
